# The other results are listed elsewhere or left out.
# Assays:
# Assay in all cases: glycan array binding signal (z-score within array); higher = stronger binding
# Conditions in all cases: glycan notation: IUPAC condensed, linker removed
# [1] = target: Fuc(a1-3)[Gal(b1-4)]GlcNAc(b1-2)Man(a1-3)[Fuc(a1-3)[Gal(b1-4)]GlcNAc(b1-2)Man(a1-6)]Man(b1-4)GlcNAc(b1-4)GlcNAc
# In short: (§1)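 Columns mapping to the same glycan were averaged after glycan names were converted to IUPAC-condensed notation. The data come from 3228 arrays in the Consortium for Functional Glycomics database, limited to those with an available protein sequence. Binding is reported as a within-array Z-score averaged across arrays of one protein sequence and across linkers.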
# [2] = target: Fuc(a1-3)[Gal(b1-4)]GlcNAc(b1-2)Man(a1-3)[Fuc(a1-3)[Gal(b1-4)]GlcNAc(b1-2)Man(a1-6)]Man(b1-4)GlcNAc(b1-4)[Fuc(a1-6)]GlcNAc
# In short: as §1
# [3] = target: Fuc(a1-3)[Gal(b1-4)]GlcNAc(b1-3)Gal(b1-3)[Fuc(a1-4)]GlcNAc
# In short: as §1
# [4] = target: Fuc(a1-3)[Gal(b1-4)]GlcNAc(b1-3)GalNAc
# In short: as §1
# [5] = target: Fuc(a1-3)[Gal(b1-4)]GlcNAc(b1-4)Gal(b1-4)[Fuc(a1-3)]GlcNAc
# In short: as §1
# [6] = target: Fuc(a1-3)[Gal(b1-4)]GlcNAc(b1-4)Gal(b1-4)[Fuc(a1-3)]GlcNAc(b1-4)Gal(b1-4)[Fuc(a1-3)]GlcNAc
# In short: as §1
# [7] = target: Fuc(a1-3)[Gal(b1-4)]GlcNAc(b1-6)GalNAc
# In short: as §1
# [8] = target: Fuc(a1-3)[Gal(b1-4)]GlcNAc(b1-6)[Gal(b1-3)GlcNAc(b1-3)]Gal(b1-4)Glc
# In short: as §1
# [9] = target: Fuc(a1-3)[Gal(b1-4)]GlcNAc(b1-6)[Neu5Ac(a2-3)Gal(b1-3)]GalNAc
# In short: as §1
# [10] = target: Fuc(a1-3)[Gal(b1-4)]GlcNAc6S
# In short: as §1
# [11] = target: Fuc(a1-3)[Gal3S(b1-4)]GlcNAc
# In short: as §1
# [12] = target: Fuc(a1-3)[Gal3S(b1-4)]GlcNAc6S
# In short: as §1
# [13] = target: Fuc(a1-3)[GalNAc(b1-4)]GlcNAc
# In short: as §1
# Fuc(a1-4)GlcNAc = target: Fuc(a1-4)GlcNAc
# In short: as §1
# Fuc(b1-3)GlcNAc = target: Fuc(b1-3)GlcNAc
# In short: as §1
# Gal(a1-2)Gal = target: Gal(a1-2)Gal
# In short: as §1
# Gal(a1-3)Gal = target: Gal(a1-3)Gal
# In short: as §1
# Gal(a1-3)Gal(b1-3)GlcNAc = target: Gal(a1-3)Gal(b1-3)GlcNAc
# In short: as §1
# [14] = target: Gal(a1-3)Gal(b1-3)GlcNAc(b1-2)Man(a1-3)[Gal(a1-3)Gal(b1-3)GlcNAc(b1-2)Man(a1-6)]Man(b1-4)GlcNAc(b1-4)GlcNAc
# In short: as §1
# [15] = target: Gal(a1-3)Gal(b1-3)GlcNAc(b1-3)GalNAc
# In short: as §1
# [16] = target: Gal(a1-3)Gal(b1-3)[Fuc(a1-4)]GlcNAc(b1-2)Man(a1-3)[Gal(a1-3)Gal(b1-3)[Fuc(a1-4)]GlcNAc(b1-2)Man(a1-6)]Man(b1-4)GlcNAc(b1-4)GlcNAc
# In short: as §1
# Gal(a1-3)Gal(b1-4)Glc = target: Gal(a1-3)Gal(b1-4)Glc
# In short: as §1
# Gal(a1-3)Gal(b1-4)GlcNAc = target: Gal(a1-3)Gal(b1-4)GlcNAc
# In short: as §1
# [17] = target: Gal(a1-3)Gal(b1-4)GlcNAc(b1-3)GalNAc
# In short: as §1
# [18] = target: Gal(a1-3)Gal(b1-4)[Fuc(a1-3)]GlcNAc
# In short: as §1
# [19] = target: Gal(a1-3)Gal(b1-4)[Fuc(a1-3)]GlcNAc(b1-2)Man(a1-3)[Gal(a1-3)Gal(b1-4)[Fuc(a1-3)]GlcNAc(b1-2)Man(a1-6)]Man(b1-4)GlcNAc(b1-4)GlcNAc
# In short: as §1
# Gal(a1-3)GalNAc = target: Gal(a1-3)GalNAc
# In short: as §1
# [20] = target: Gal(a1-3)[Gal(a1-4)]Gal(b1-4)GlcNAc
# In short: as §1
# [21] = target: Gal(a1-4)Gal(b1-3)GlcNAc(b1-2)Man(a1-3)[Gal(a1-4)Gal(b1-3)GlcNAc(b1-2)Man(a1-6)]Man(b1-4)GlcNAc(b1-4)GlcNAc
# In short: as §1
# Gal(a1-4)Gal(b1-4)Glc = target: Gal(a1-4)Gal(b1-4)Glc
# In short: as §1
# Gal(a1-4)Gal(b1-4)GlcNAc = target: Gal(a1-4)Gal(b1-4)GlcNAc
# In short: as §1
# [22] = target: Gal(a1-4)Gal(b1-4)GlcNAc(b1-2)Man(a1-3)[Gal(a1-4)Gal(b1-4)GlcNAc(b1-2)Man(a1-6)]Man(b1-4)GlcNAc(b1-4)GlcNAc
# In short: as §1
# [23] = target: Gal(a1-4)Gal(b1-4)GlcNAc(b1-3)Gal(b1-4)Glc
# In short: as §1
# Gal(a1-4)GlcNAc = target: Gal(a1-4)GlcNAc
# In short: as §1
# Gal(a1-6)Glc = target: Gal(a1-6)Glc
# In short: as §1
# Gal(b1-2)Gal = target: Gal(b1-2)Gal
# In short: as §1
# Gal(b1-3)Gal = target: Gal(b1-3)Gal
# In short: as §1
binder,measurement,setting,value
"F17aG (Escherichia coli), Q99003 (protein) MTNFYKVFLAVFILVCCNISQAAVSFIGSTENDVGPSLGSYSRTHAMDNLPFVYDTRNKIGYQNANVWHISKGFCVGLDGKVDLPVVGSLDGQSIYGLTEEVGLLIWMGDTKYSRGTAMSGNSWENVFSGWCVGANTASTQGLSVRVTPVILKRNSSARYSVQKTSIGSIRMRPYNGSSAGSVQTTVNFSLNPFTLNDTVTSCRLLTPSAVNVSLAAISAGQLPSSGDEVVAGTTSLKLQCDAGVTVWATLTDATTPSNRSDILTLTGASTATGVGLRIYKNTDSTPLKFGPDSPVKGNENQWQLSTGTETSPSVRLYVKYVNTGEGINPGTVNGISTFTFSYQ",glycan array binding signal (z-score),[1],-0.148
same,glycan array binding signal (z-score),[2],-0.16
same,glycan array binding signal (z-score),[3],-0.065
same,glycan array binding signal (z-score),[4],-0.144
same,glycan array binding signal (z-score),[5],-0.138
same,glycan array binding signal (z-score),[6],-0.26
same,glycan array binding signal (z-score),[7],-0.119
same,glycan array binding signal (z-score),[8],-0.15
same,glycan array binding signal (z-score),[9],-0.146
same,glycan array binding signal (z-score),[10],-0.145
same,glycan array binding signal (z-score),[11],-0.219
same,glycan array binding signal (z-score),[12],-0.151
same,glycan array binding signal (z-score),[13],-0.236
same,glycan array binding signal (z-score),Fuc(a1-4)GlcNAc,-0.219
same,glycan array binding signal (z-score),Fuc(b1-3)GlcNAc,-0.253
same,glycan array binding signal (z-score),Gal(a1-2)Gal,-0.221
same,glycan array binding signal (z-score),Gal(a1-3)Gal,-0.259
same,glycan array binding signal (z-score),Gal(a1-3)Gal(b1-3)GlcNAc,0.04
same,glycan array binding signal (z-score),[14],-0.178
same,glycan array binding signal (z-score),[15],-0.143
same,glycan array binding signal (z-score),[16],-0.161
same,glycan array binding signal (z-score),Gal(a1-3)Gal(b1-4)Glc,-0.197
same,glycan array binding signal (z-score),Gal(a1-3)Gal(b1-4)GlcNAc,-0.183
same,glycan array binding signal (z-score),[17],-0.168
same,glycan array binding signal (z-score),[18],-0.252
same,glycan array binding signal (z-score),[19],-0.157
same,glycan array binding signal (z-score),Gal(a1-3)GalNAc,-0.188
same,glycan array binding signal (z-score),[20],-0.234
same,glycan array binding signal (z-score),[21],-0.142
same,glycan array binding signal (z-score),Gal(a1-4)Gal(b1-4)Glc,-0.249
same,glycan array binding signal (z-score),Gal(a1-4)Gal(b1-4)GlcNAc,-0.252
same,glycan array binding signal (z-score),[22],-0.16
same,glycan array binding signal (z-score),[23],-0.154
same,glycan array binding signal (z-score),Gal(a1-4)GlcNAc,-0.258
same,glycan array binding signal (z-score),Gal(a1-6)Glc,0.181
same,glycan array binding signal (z-score),Gal(b1-2)Gal,-0.25
same,glycan array binding signal (z-score),Gal(b1-3)Gal,-0.25

# From the supplement of paper PMC8728848
